Source: the supplement of paper PMC10369915
The list shows a part of the results. No stated cut-off is given here; in the data, active = 3.2 or more and inactive = the rest. The signal is at background level for most entries.

Molecular target: SHP2 C-SH2 domain E139D
Experiment: enrichment score (SH2-bound / input frequency) (ratio); bacterial display of known human phosphotyrosine sites (pTyr-Var adds point mutants) read by sequencing; higher = stronger binding; tyrosines were phosphorylated by kinases first
Settings: peptide library: pTyr-Var
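Further: displayed peptides selected on beads carrying the immobilized SH2 domain, with library peptides lacking any tyrosine serving as negative controls.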

Binder | enrichment score
QFLMKYVWSAP [ABCD1_Y337_S342P] | inactive: 0.957
SEKIVYGHLDD [ACO2_Y71] | inactive: 0.702
SMAKYYASEIA [ACADSB_Y373] | inactive: 0.635
GRRNTCFASIA [ACADM_Y352_Y352C_YF] | inactive: 0.443
SNKLTYGTMVF [ACOX1_Y275] | inactive: 0.951
SISLRYEGRVF [ABL1_Y167_YF] | inactive: 1.6
QFLMKYVRSAS [ABCD1_Y337_W339R] | inactive: 0.862
ASMAKYYASEI [ACADSB_Y372] | inactive: 0.813
NKPTVYGVSPN [ABL1_Y226] | inactive: 0.689
SISLRYEGRVY [ABL1_Y167] | inactive: 1.4
LGRKLYSIAAP [ABHD12_Y345] | inactive: 0.514
IGDENYGEGSS [ACO2_Y665] | inactive: 0.476
RVGNMYVRGLS [ABCG8_Y209] | inactive: 0.675
ASMAKYYASGI [ACADSB_Y372_E376G] | inactive: 0.687
SMAKYYASGIA [ACADSB_Y373_E376G] | inactive: 0.939
TSSAGYRRTPS [ABI1_Y333_G331A] | inactive: 0.267
RRNTCYASIAK [ACADM_Y353_Y352C] | inactive: 0.346
TSAEGYQDVRD [ABLIM1_Y439_P434T] | inactive: 0.381

Molecular target: SHP2 C-SH2 domain wild-type
Experiment: as above
Settings: peptide library: pTyr-Var

Binder | enrichment score
QFLMKYVWSAP [ABCD1_Y337_S342P] | inactive: 0.847
SEKIVYGHLDD [ACO2_Y71] | inactive: 0.894
SMAKYYASEIA [ACADSB_Y373] | inactive: 0.69
GRRNTCFASIA [ACADM_Y352_Y352C_YF] | inactive: 0.345
SNKLTYGTMVF [ACOX1_Y275] | inactive: 0.864
SISLRYEGRVF [ABL1_Y167_YF] | inactive: 1.55
QFLMKYVRSAS [ABCD1_Y337_W339R] | inactive: 0.578
ASMAKYYASEI [ACADSB_Y372] | inactive: 0.659
NKPTVYGVSPN [ABL1_Y226] | inactive: 0.74
SISLRYEGRVY [ABL1_Y167] | inactive: 1.12
LGRKLYSIAAP [ABHD12_Y345] | inactive: 0.491
IGDENYGEGSS [ACO2_Y665] | inactive: 0.43
RVGNMYVRGLS [ABCG8_Y209] | inactive: 0.8
ASMAKYYASGI [ACADSB_Y372_E376G] | inactive: 0.411
SMAKYYASGIA [ACADSB_Y373_E376G] | inactive: 0.589
TSSAGYRRTPS [ABI1_Y333_G331A] | inactive: 0.127
RRNTCYASIAK [ACADM_Y353_Y352C] | inactive: 0.796
TSAEGYQDVRD [ABLIM1_Y439_P434T] | inactive: 0.296

Molecular target: SHP2 N-SH2 domain L43F
Experiment: as above
Settings: peptide library: pTyr-Var

Binder | enrichment score
QFLMKYVWSAP [ABCD1_Y337_S342P] | inactive: 0.751
SEKIVYGHLDD [ACO2_Y71] | inactive: 0.97
SMAKYYASEIA [ACADSB_Y373] | inactive: 0.638
GRRNTCFASIA [ACADM_Y352_Y352C_YF] | inactive: 0.369
SNKLTYGTMVF [ACOX1_Y275] | active: 4.66
SISLRYEGRVF [ABL1_Y167_YF] | inactive: 1.41
QFLMKYVRSAS [ABCD1_Y337_W339R] | inactive: 0.703
ASMAKYYASEI [ACADSB_Y372] | inactive: 0.538
NKPTVYGVSPN [ABL1_Y226] | inactive: 0.787
SISLRYEGRVY [ABL1_Y167] | inactive: 1.38
LGRKLYSIAAP [ABHD12_Y345] | inactive: 0.535
IGDENYGEGSS [ACO2_Y665] | inactive: 0.377
RVGNMYVRGLS [ABCG8_Y209] | inactive: 0.521
ASMAKYYASGI [ACADSB_Y372_E376G] | inactive: 0.604
SMAKYYASGIA [ACADSB_Y373_E376G] | inactive: 0.756
TSSAGYRRTPS [ABI1_Y333_G331A] | inactive: 0.361
RRNTCYASIAK [ACADM_Y353_Y352C] | inactive: 0.464
TSAEGYQDVRD [ABLIM1_Y439_P434T] | inactive: 0.57

Molecular target: SHP2 N-SH2 domain T42A
Experiment: as above
Settings: peptide library: pTyr-Var

Binder | enrichment score
QFLMKYVWSAP [ABCD1_Y337_S342P] | inactive: 0.806
SEKIVYGHLDD [ACO2_Y71] | inactive: 0.956
SMAKYYASEIA [ACADSB_Y373] | inactive: 0.53
GRRNTCFASIA [ACADM_Y352_Y352C_YF] | inactive: 0.462
SNKLTYGTMVF [ACOX1_Y275] | active: 5.04
SISLRYEGRVF [ABL1_Y167_YF] | inactive: 1.41
QFLMKYVRSAS [ABCD1_Y337_W339R] | inactive: 0.588
ASMAKYYASEI [ACADSB_Y372] | inactive: 0.49
NKPTVYGVSPN [ABL1_Y226] | inactive: 0.676
SISLRYEGRVY [ABL1_Y167] | inactive: 1.39
LGRKLYSIAAP [ABHD12_Y345] | inactive: 0.339
IGDENYGEGSS [ACO2_Y665] | inactive: 0.37
RVGNMYVRGLS [ABCG8_Y209] | inactive: 0.666
ASMAKYYASGI [ACADSB_Y372_E376G] | inactive: 0.571
SMAKYYASGIA [ACADSB_Y373_E376G] | inactive: 0.615
TSSAGYRRTPS [ABI1_Y333_G331A] | inactive: 0.16
RRNTCYASIAK [ACADM_Y353_Y352C] | inactive: 0.441
TSAEGYQDVRD [ABLIM1_Y439_P434T] | inactive: 0.449

Molecular target: SHP2 N-SH2 domain T52S
Experiment: as above
Settings: peptide library: pTyr-Var

Binder | enrichment score
QFLMKYVWSAP [ABCD1_Y337_S342P] | inactive: 1.11
SEKIVYGHLDD [ACO2_Y71] | inactive: 0.792
SMAKYYASEIA [ACADSB_Y373] | inactive: 0.621
GRRNTCFASIA [ACADM_Y352_Y352C_YF] | inactive: 0.432
SNKLTYGTMVF [ACOX1_Y275] | active: 5.16
SISLRYEGRVF [ABL1_Y167_YF] | inactive: 1.72
QFLMKYVRSAS [ABCD1_Y337_W339R] | inactive: 0.648
ASMAKYYASEI [ACADSB_Y372] | inactive: 0.655
NKPTVYGVSPN [ABL1_Y226] | inactive: 0.691
SISLRYEGRVY [ABL1_Y167] | inactive: 1.21
LGRKLYSIAAP [ABHD12_Y345] | inactive: 0.482
IGDENYGEGSS [ACO2_Y665] | inactive: 0.357
RVGNMYVRGLS [ABCG8_Y209] | inactive: 0.663
ASMAKYYASGI [ACADSB_Y372_E376G] | inactive: 0.741
SMAKYYASGIA [ACADSB_Y373_E376G] | inactive: 0.652
TSSAGYRRTPS [ABI1_Y333_G331A] | inactive: 0.272
RRNTCYASIAK [ACADM_Y353_Y352C] | inactive: 0.346
TSAEGYQDVRD [ABLIM1_Y439_P434T] | inactive: 0.415

Molecular target: SHP2 N-SH2 domain wild-type
Experiment: as above
Settings: peptide library: pTyr-Var

Binder | enrichment score
QFLMKYVWSAP [ABCD1_Y337_S342P] | inactive: 1.3
SEKIVYGHLDD [ACO2_Y71] | inactive: 0.775
SMAKYYASEIA [ACADSB_Y373] | inactive: 0.658
GRRNTCFASIA [ACADM_Y352_Y352C_YF] | inactive: 0.394
SNKLTYGTMVF [ACOX1_Y275] | inactive: 2.48
SISLRYEGRVF [ABL1_Y167_YF] | inactive: 1.43
QFLMKYVRSAS [ABCD1_Y337_W339R] | inactive: 0.641
ASMAKYYASEI [ACADSB_Y372] | inactive: 0.741
NKPTVYGVSPN [ABL1_Y226] | inactive: 0.705
SISLRYEGRVY [ABL1_Y167] | inactive: 1.32
LGRKLYSIAAP [ABHD12_Y345] | inactive: 0.611
IGDENYGEGSS [ACO2_Y665] | inactive: 0.459
RVGNMYVRGLS [ABCG8_Y209] | inactive: 0.755
ASMAKYYASGI [ACADSB_Y372_E376G] | inactive: 0.776
SMAKYYASGIA [ACADSB_Y373_E376G] | inactive: 0.649
TSSAGYRRTPS [ABI1_Y333_G331A] | inactive: 0.181
RRNTCYASIAK [ACADM_Y353_Y352C] | inactive: 0.474
TSAEGYQDVRD [ABLIM1_Y439_P434T] | inactive: 0.566
